{
  "source": "PubChem BioAssay AID488969",
  "about": "(Vanderbilt High Throughput Screening Facility, 2010)",
  "note": "The full ranking holds about 110,000 compounds; the median of “z-score” is about -0.1, and the highest 2% start at about 2. The list shows a part of the results.",
  "data": [
    {"target": "Metabotropic glutamate receptor 8 (Rattus norvegicus) (UniProt P70579)", "sequence (P70579 whole entry, looked up)": "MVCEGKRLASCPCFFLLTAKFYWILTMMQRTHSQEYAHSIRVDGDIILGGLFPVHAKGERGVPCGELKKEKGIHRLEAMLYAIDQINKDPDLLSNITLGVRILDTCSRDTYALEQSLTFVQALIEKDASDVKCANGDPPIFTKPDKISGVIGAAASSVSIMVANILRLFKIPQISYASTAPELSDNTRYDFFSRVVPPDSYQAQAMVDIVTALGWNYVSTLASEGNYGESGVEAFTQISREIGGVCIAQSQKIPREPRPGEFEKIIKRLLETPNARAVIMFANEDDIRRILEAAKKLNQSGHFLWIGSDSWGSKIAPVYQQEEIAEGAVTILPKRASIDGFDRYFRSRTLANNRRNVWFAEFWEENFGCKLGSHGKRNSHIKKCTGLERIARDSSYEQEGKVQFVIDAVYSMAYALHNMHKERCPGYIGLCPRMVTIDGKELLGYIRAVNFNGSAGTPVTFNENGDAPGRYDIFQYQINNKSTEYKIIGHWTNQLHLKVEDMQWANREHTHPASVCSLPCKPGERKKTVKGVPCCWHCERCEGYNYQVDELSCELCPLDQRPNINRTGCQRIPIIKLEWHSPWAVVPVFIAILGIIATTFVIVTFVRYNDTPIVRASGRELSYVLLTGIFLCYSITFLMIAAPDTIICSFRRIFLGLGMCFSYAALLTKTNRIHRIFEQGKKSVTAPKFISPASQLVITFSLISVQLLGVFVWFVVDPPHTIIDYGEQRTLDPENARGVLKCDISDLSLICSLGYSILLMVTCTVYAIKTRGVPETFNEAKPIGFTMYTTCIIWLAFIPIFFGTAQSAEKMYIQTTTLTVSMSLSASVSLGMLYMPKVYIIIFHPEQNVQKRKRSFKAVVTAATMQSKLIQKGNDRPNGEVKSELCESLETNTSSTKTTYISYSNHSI", "assay": "mGluR8 Gi/Go-coupled signaling modulation – cell-based, rat, thallium flux, HTS, primary screen (AID 488969)", "conditions": "HEK293 rat mGluR8, GIRK (G protein-gated inwardly rectifying potassium channel) thallium flux, FluoZin2; at 10 µM; stronger effect = higher value", "values": [
      {"smiles": "COc1ccc(C(=O)CC2C(=O)N(C)C(=O)N(C)C2=O)cc1", "z-score": 0.025},
      {"smiles": "CN(C)C(=O)OCc1n(C)cc[n+]1C", "z-score": -0.382},
      {"smiles": "O=c1[nH]c(O)c(C=NC2CCN(Cc3ccccc3)CC2)c(=O)[nH]1", "z-score": -0.0295},
      {"smiles": "COc1ccc(C(=O)C2CN(C)CC2C(=O)c2ccc(OC)cc2)cc1", "note": "(stereo not given)", "z-score": 0.0315},
      {"smiles": "Cc1ccc(-n2c(O)c(/C=N/NC(=O)c3ccncc3)c(=O)[nH]c2=O)cc1", "z-score": 1.34},
      {"smiles": "CC(C)N1C(=O)CCC1C(=O)N1CCC2(CC1)OCCO2", "note": "(stereo not given)", "z-score": 0.254},
      {"smiles": "NCC1(c2ccc3c(c2)OCCO3)CCCC1", "z-score": -0.026},
      {"smiles": "COc1ccc(C2SCC(=O)Nc3c2c(C)nn3C2CCOC(C)(C)C2)cc1", "note": "(stereo not given)", "z-score": -0.154},
      {"smiles": "Cc1nn(Cc2ccccc2Cl)c(Cl)c1C(=O)OCC(=O)NCc1ccco1", "z-score": -0.981},
      {"smiles": "O=C(Cn1c(=S)[nH]c2ccccc2c1=O)N1CCC2(CC1)OCCO2", "z-score": 0.264},
      {"smiles": "O=C(CN1CCCCC1)Nc1ccc(Br)cc1C(=O)c1ccccc1Cl", "z-score": -0.309},
      {"smiles": "CCCCn1c(O)c(C(C)=Nc2c(C)n(C)n(-c3ccccc3)c2=O)c(=O)[nH]c1=O", "z-score": -0.414},
      {"smiles": "Cc1ccc2c(c1)C1CN(C)CCC1N2C(=O)Nc1cccc(C(F)(F)F)c1", "note": "(stereo not given)", "z-score": 0.445},
      {"smiles": "CCOP(=O)(OCC)C(O)c1ccc(Br)cc1", "note": "(stereo not given)", "z-score": -0.0404},
      {"smiles": "CN1/C(=C\\C=Nc2ccccc2)C(C)(C)c2ccccc21", "z-score": -0.319},
      {"smiles": "CC1=NN(c2ccccc2)C(=O)C1/C=C1\\C(=O)NC(=O)N(c2ccc(C)c(C)c2)C1=O", "note": "(stereo not given)", "z-score": -0.517},
      {"smiles": "CN(C(=O)Oc1ccc(Cl)c2cccnc12)c1ccccc1", "z-score": -0.251},
      {"smiles": "Cc1c(C(c2ccc(O)cc2)c2c(O)c3ccccc3oc2=O)c(=O)n(-c2ccccc2)n1C", "note": "(stereo not given)", "z-score": -0.327},
      {"smiles": "CCC(CC)NC1CCCCC1OC", "note": "(stereo not given)", "z-score": -0.0362},
      {"smiles": "Cc1ccccc1NP(=O)(Oc1ccccc1F)Oc1ccccc1F", "z-score": -0.294},
      {"smiles": "COc1ccc(-n2c(=O)[nH]c3ccccc3c2=O)cc1", "z-score": 0.343},
      {"smiles": "N[C@@H](Cc1c[nH]c2ccccc12)c1nnc(SCc2ccccc2F)o1", "z-score": -0.0332},
      {"smiles": "Cc1ccc(N2C(=O)CC(=O)NC2=O)cc1", "z-score": -0.347},
      {"smiles": "Cc1ccc(-c2nc3ccccc3c(=O)n2-c2ncccc2C)cc1", "z-score": 0.068},
      {"smiles": "COC(=O)CC1NC2CCCCC2NC1=O", "note": "(stereo not given)", "z-score": -0.179},
      {"smiles": "CC(=O)Nc1cc(C(=O)N2CCC3(CC2)OCCO3)ccc1Sc1ccc(C)cc1", "z-score": 0.27},
      {"smiles": "O=C(CN1CCOCC1)Nc1ccc(Br)cc1C(=O)c1ccccc1", "z-score": -1.1},
      {"smiles": "CCOC(=O)c1[nH]c(C)c(C(=O)N2CCC3(CC2)OCCO3)c1C", "z-score": 0.012},
      {"smiles": "Cc1nonc1-c1nc(-c2nonc2N)n[nH]1", "z-score": -0.139},
      {"smiles": "CCCCN1C(=O)/C(=C/C=C/c2ccco2)C(=O)NC1=S", "z-score": 0.136},
      {"smiles": "Cc1ccc(CN2CCN(CC(=O)N3CCC4(CC3)OCCO4)C2=O)cc1", "z-score": -0.217},
      {"smiles": "CCN(CC)c1ccc(/C=C2/C(=O)NC(=O)N(Cc3ccco3)C2=O)cc1", "z-score": 0.102},
      {"smiles": "C(=NC12CN3CN(CN(C3)C1)C2)c1cccnc1", "z-score": 1.63},
      {"smiles": "CCc1ccc(OCCCN=C(C)c2c(O)n(C)c(=O)n(C)c2=O)cc1", "z-score": 1.02},
      {"smiles": "O=c1c2ccccc2nc(CN2CCOCC2)n1-c1ccccc1F", "z-score": 0.0334},
      {"smiles": "CCCCN1C(=O)NC(=O)C2(Cc3c(nc4c(C)cccn4c3=O)N3CCc4ccccc4C32)C1=O", "note": "(stereo not given)", "z-score": -1.19},
      {"smiles": "CCC(=O)N1CCN(CCN=Cc2c(O)n(C)c(=O)n(C)c2=O)CC1", "z-score": -0.0785},
      {"smiles": "COc1cccc(C2(O)CCSCC2CN(C)C)c1", "note": "(stereo not given)", "z-score": -1.53},
      {"smiles": "CCOC(=O)c1c(C)n(C(C)C)c2ccc(OC(=O)c3ccc(N4C(=O)CCC4=O)cc3)cc12", "z-score": -0.0748},
      {"smiles": "COc1ccc(C2NCc3ccc4c(c3-n3cccc32)OCO4)cc1O", "note": "(stereo not given)", "z-score": 2.45},
      {"smiles": "CN1C(=O)C(C2c3ccccc3C(=O)N2Cc2ccc([N+](=O)[O-])cc2)C(=O)N(C)C1=O", "note": "(stereo not given)", "z-score": 0.0495},
      {"smiles": "COCCNC(=O)c1c(NC(=O)c2ccco2)n(Cc2ccccc2)c2nc3ccccc3nc12", "z-score": -0.316},
      {"smiles": "Cc1cccc(-n2c(-c3ccco3)nc3ccccc3c2=O)n1", "z-score": 0.421},
      {"smiles": "Cn1c(=O)cc(OCC(=O)N2CCN(C3CCCCC3)CC2)c2ccccc21", "z-score": 0.321},
      {"smiles": "CCNC(=O)NC(=O)C(C)OC(=O)c1c(C)nn(Cc2ccccc2)c1Cl", "note": "(stereo not given)", "z-score": -0.313},
      {"smiles": "Cc1ccnc(-n2c(-c3ccco3)nc3ccccc3c2=O)c1", "z-score": 0.105},
      {"smiles": "COc1ccc(N=C2SCCCN2C)cc1", "z-score": 0.297},
      {"smiles": "O=c1c2ccccc2nc(N2CCCC2)n1-c1ccccc1", "z-score": -0.184},
      {"smiles": "COCCNC(=O)c1c(N)n(CCC(C)C)c2nc3ccccc3nc12", "z-score": -0.128},
      {"smiles": "CN(C)C1(c2nnnn2-c2ccc(Cl)cc2)CCCCC1", "z-score": -0.982},
      {"smiles": "Cc1nn(Cc2ccc(Cl)cc2Cl)c(Cl)c1C(=O)Nc1ccc(OC(F)F)cc1", "z-score": -0.265},
      {"smiles": "COc1ccc(C(=O)CC2(CC(=O)c3ccc(OC)cc3)C(=O)N(C)C(=O)N(C)C2=O)cc1", "z-score": 0.326},
      {"smiles": "COC(=O)c1ccc(N2C(=O)CC(N3CCC(n4c(=O)[nH]c5ccccc54)CC3)C2=O)cc1", "note": "(stereo not given)", "z-score": -1.07},
      {"smiles": "COc1cccc(N2CCN(Cc3cccc(Cl)c3)CC2)c1", "z-score": -0.234},
      {"smiles": "CCn1c(O)c(C(=O)CC2NCCc3ccccc32)c(=O)n(CC)c1=S", "note": "(stereo not given)", "z-score": 0.848},
      {"smiles": "CN1CCC(OC(=O)C2c3ccccc3Oc3ccccc32)CC1", "z-score": 1.83},
      {"smiles": "CC(N)Cc1c[nH]c2ccc(Cl)cc12", "note": "(stereo not given)", "z-score": 0.0126},
      {"smiles": "O=[N+]([O-])c1cc2c(cc1CNCCc1ccc3c(c1)OCO3)OCO2", "z-score": 0.309},
      {"smiles": "CCN(CC)c1ccc(CC2C(=O)N(C)C(=O)N(C)C2=O)cc1", "z-score": 0.254},
      {"smiles": "O=Cc1c(C(=O)O)n(Cc2ccc(Cl)cc2)c2ccccc12", "z-score": -0.764},
      {"smiles": "CCN(CC)CCN=Cc1c(O)n(C2CCCCCC2)c(=O)[nH]c1=O", "z-score": -0.091},
      {"smiles": "CCCCN1CCC(O)(c2ccccc2)C(C(=O)c2ccccc2)C1", "note": "(stereo not given)", "z-score": 0.729},
      {"smiles": "CCNC(=O)C1OC(n2cnc3c(N)ncnc32)C(O)C1O", "note": "(stereo not given)", "z-score": 2},
      {"smiles": "Cc1cc(O)c(CN2CCN(c3ccccc3)CC2)cc1C", "z-score": -0.269},
      {"smiles": "CNC(=O)OCCc1n(C)cc[n+]1C", "z-score": -0.193},
      {"smiles": "CCCOP(=O)(O)c1c([N+](=O)[O-])cc(C(F)(F)F)cc1[N+](=O)[O-]", "note": "(tested in a mixture with another compound)", "z-score": 0.344},
      {"smiles": "CCCCCn1c(=O)c(C(=O)NCc2ccncc2)c(O)c2ccccc21", "z-score": -1.2},
      {"smiles": "COc1ccc(CCNCc2ccccc2F)cc1OC", "z-score": 0.874},
      {"smiles": "CC1=C(C(=O)N2CCC3(CC2)OCCO3)C2(CCC(C)CC2)OC1=O", "note": "(stereo not given)", "z-score": 0.154},
      {"smiles": "O=C(Nc1cccc(OC(=O)N2CCCCC2)c1)N1CCCCC1", "z-score": -0.102}
    ]}
  ]
}
